Source: PubChem BioAssay AID463173 (ICCB-Longwood Screening Facility, Harvard Medical School, 2010)
In all, about 52,000 compounds went through this assay and about 4,300 (8.3%) were called active. Rule as the data show it: active = survival mostly below about 52% (no sharp cut-off); inactive = mostly above about 56%. This is one part of the list.

test system: DeltatarO mutant; assay: S. aureus survival, RN4220 and DeltatarO strains – OD600, teichoic acid synthesis inhibitors, primary screen (AID 463173); settings: S. aureus RN4220 wild type/DeltatarO growth, OD600, 18 h, stronger effect = lower value, screened at 18.75 µg/mL (by protocol)

Row | SMILES | survival
1 | COC(=O)c1c(-c2cccs2)csc1NC(=O)COc1ccccc1 | inactive: 78%
2 | COc1ccc(C2C(=O)N(C3CCCCCC3)CC(=O)N2Cc2ccccc2)cc1 (stereo unspecified) | inactive: 76%
3 | Cc1cccc2cc(C#N)c(SCCN3CCCCC3)nc12 | inactive: 110%
4 | CC(CNC(=O)c1ccc(Nc2nc3ccccc3n3nnnc23)cc1)c1ccccc1 (stereo unspecified) | inactive: 75%
5 | COc1ccc(Cl)cc1S(=O)(=O)n1ccnc1 | inactive: 90%
6 | C=CCn1c(SCC(=O)Nc2ccc(F)cc2)nc2ccccc2c1=O | inactive: 93%
7 | NC(=O)C1CCN(C(=O)c2ccc3c(c2)N(Cc2cccc(Cl)c2)C(=O)c2ccccc2S3(=O)=O)CC1 | inactive: 69%
8 | CCOC(=O)c1c(-c2ccc(C)cc2C)csc1NC(=O)c1ccccc1Cl | inactive: 47%
9 | Cc1ccc2c(=O)cc(C(=O)Nc3c(C(=O)c4ccccc4)oc4ccccc34)oc2c1 | inactive: 76%
10 | O=C(NCCCN1CCCCC1)c1ccc2c(c1)sc1nc(-c3ccc(F)cc3)cn12 | active: 53%
11 | N#CC1=C(N)Oc2c(c(=O)oc3ccccc23)C1 | active: 31%
12 | Cc1ccc(NC(=O)CCCN2C(=O)COc3ccc(C)cc32)c(C)c1 | inactive: 112%
13 | Cn1c(Cc2cccs2)nnc1SCC(=O)N1CCCc2ccccc21 | inactive: 103%
14 | CCc1cccc(C)c1NC(=O)c1nc2ccccc2nc1N1CCCCC1 | inactive: 95%
15 | COc1ccc2c(Sc3ccccc3)c(C(=O)N3CCC(C)CC3)[nH]c2c1 | inactive: 69%
16 | Cc1ccc(N2C(=O)CSC23C(=O)N(CC(=O)Nc2ccc(C)cc2C)c2ccccc23)cc1 (stereo unspecified) | inactive: 81%
17 | CCCCOC(=O)/C(C#N)=C/c1ccc(-c2ccc(Br)cc2)o1 | inactive: 68%
18 | CCC(=O)N1CCN(c2nc3c(C)cccc3s2)CC1 | inactive: 96%
19 | COc1ccc(OC(=O)CSc2nnc(-c3ccc(F)cc3)o2)cc1 | inactive: 109%
20 | CCCn1c2ccccc2c2cnn(CC(=O)NC(C)CC)c(=O)c21 (stereo unspecified) | inactive: 72%
21 | CCOc1ccc(/C=C/c2nc(C#N)c(N3CCCCCC3)o2)cc1 | inactive: 68%
22 | O=C(COc1ccccc1)N1CCNCC1 | inactive: 124%
23 | COc1ccccc1NC(=O)Cn1c(=O)n(Cc2nc(C)no2)c(=O)c2cc3c(cc21)OCO3 | inactive: 73%

Row | SMILES | survival
24 | COc1ccccc1NC(=O)N1CCOc2ccccc21 | inactive: 91%
25 | Cc1cc(C)n2nc(CNS(=O)(=O)c3ccc(F)cc3)nc2n1 | inactive: 94%
26 | COC(=O)c1cc2oc3ccccc3c2n1CC(=O)Nc1ccc(C)cc1Cl | inactive: 84%
27 | CCCN(CCC)CCNC(=O)Cn1cnc2sc(C)c(S(=O)(=O)N3CCN(c4ccccc4OC)CC3)c2c1=O | inactive: 79%
28 | COc1cccc(CNC(=O)c2ccc(CN3CC(=O)N4CCCCC4C3=O)cc2)c1 (stereo unspecified) | inactive: 82%
29 | COc1ccccc1/C=C(\C#N)C(=O)NCC1CCCO1 (stereo unspecified) | inactive: 129%
30 | CCn1c(C(=O)NCc2ccccc2)cc2sc(Cl)cc21 | active: 34%
31 | Cc1ccc(NC(=O)c2cc(-c3cccs3)nc3ccccc23)c(C)c1 | active: 57%
32 | CC(C)CCn1c(=O)c2sccc2n2c(CCCC(=O)Nc3ccc(F)c(Cl)c3)nnc12 | inactive: 48%
33 | O=C(NCc1ccc(F)cc1Cl)c1ccc(CSCc2ccccc2Cl)o1 | inactive: 54%
34 | CC(C)(C)C1=CC(CO)CC(CO)C1 (stereo unspecified) | inactive: 67%
35 | Cc1ccc(N2CCN(C(=O)Nc3cn(CC(C)C)c(=O)c4ccccc34)CC2)c(C)c1 | inactive: 124%
36 | CC(C)Oc1ccc(CNC(=O)c2cnc3sc(N4CCCCCC4)nn3c2=O)cc1 | inactive: 80%
37 | CCN1C(=O)C2C(c3ccco3)NC(C(=O)OC)(c3ccccc3)C2C1=O (stereo unspecified) | inactive: 92%
38 | CCCCC(=O)Nc1cccc(-c2nc3ccccc3s2)c1 | active: 41%
39 | COc1ccc(-n2ncc3c(=O)n(CC(=O)NC(C)C)cnc32)cc1 | inactive: 83%
40 | CCCCN(C)CC(O)Cn1cc(/C=C/C(=O)c2ccc(OCC)cc2)c2ccccc21 (stereo unspecified) | active: 6%
41 | Cc1cccc(-n2ccnc2SCC(=O)Nc2cc(C(F)(F)F)ccc2Cl)c1 | inactive: 73%
42 | CCOc1ccc(-n2c(SCC(=O)N3CCCc4ccccc43)nc3c([nH]c4ccccc43)c2=O)cc1 | inactive: 57%
43 | CCOc1ccccc1NC(=O)CCS(=O)(=O)c1ccc(OC)cc1 | inactive: 94%
44 | CCc1ccc(NC(=O)c2cc(CN3CCOCC3)on2)cc1 | inactive: 88%
45 | CCOC(=O)c1[nH]c(C)c(C(=O)NCCc2ccccc2)c1C | inactive: 80%
46 | O=C(CCn1c(=O)c2ccccc2n(Cc2ccc(Cl)cc2)c1=O)NCc1ccc2c(c1)OCO2 | inactive: 95%
